The experiment concerns the target Biosimilar (BS) bapineuzumab. Briefly: MSD inhibition assay, abeta 1-28 coated plates.

This note sets out measurements from patent US20190275125A1.

Biosimilar (BS) bapineuzumab, sequence (chain, as listed by the source, chain 1 of 2): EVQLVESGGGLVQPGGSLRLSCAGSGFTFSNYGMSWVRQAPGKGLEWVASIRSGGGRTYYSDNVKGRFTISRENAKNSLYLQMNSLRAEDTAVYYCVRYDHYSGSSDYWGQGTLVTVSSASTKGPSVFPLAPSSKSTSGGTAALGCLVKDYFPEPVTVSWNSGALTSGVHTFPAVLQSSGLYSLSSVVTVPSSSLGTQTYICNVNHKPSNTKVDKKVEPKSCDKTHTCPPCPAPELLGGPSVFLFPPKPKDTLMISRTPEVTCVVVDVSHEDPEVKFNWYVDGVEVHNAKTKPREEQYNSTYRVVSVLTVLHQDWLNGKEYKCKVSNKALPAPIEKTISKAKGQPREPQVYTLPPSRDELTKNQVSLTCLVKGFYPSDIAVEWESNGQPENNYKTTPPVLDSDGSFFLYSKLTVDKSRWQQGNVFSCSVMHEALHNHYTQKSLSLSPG
Biosimilar (BS) bapineuzumab, sequence (chain, as listed by the source, chain 2 of 2): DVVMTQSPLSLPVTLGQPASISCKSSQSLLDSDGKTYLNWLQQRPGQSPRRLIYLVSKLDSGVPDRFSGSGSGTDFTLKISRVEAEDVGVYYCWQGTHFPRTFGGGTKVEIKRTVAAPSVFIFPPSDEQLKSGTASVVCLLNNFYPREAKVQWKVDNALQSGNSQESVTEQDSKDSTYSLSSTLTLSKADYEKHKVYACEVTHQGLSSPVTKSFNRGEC

A word on the IC50: it is the concentration needed to halve the response being measured. A lower IC50 goes with greater potency in that assay. With “abeta […] (the N-terminal […] of abeta) (a stretch of the chain, chain not printed) (peptide; modification not given)”, the IC50 was 30 nM.
